Laboratory results published in the BET-seq Pho4 binding data (Le et al. 2018).
The other results are listed elsewhere or left out. These are noisy estimates, calculated here from bound and input reads.

target: T1, Pho4 (S. cerevisiae) (UniProt P07270); assay: relative binding free energy (BET-seq); higher = weaker binding; conditions: reference: library average
T1 sequence: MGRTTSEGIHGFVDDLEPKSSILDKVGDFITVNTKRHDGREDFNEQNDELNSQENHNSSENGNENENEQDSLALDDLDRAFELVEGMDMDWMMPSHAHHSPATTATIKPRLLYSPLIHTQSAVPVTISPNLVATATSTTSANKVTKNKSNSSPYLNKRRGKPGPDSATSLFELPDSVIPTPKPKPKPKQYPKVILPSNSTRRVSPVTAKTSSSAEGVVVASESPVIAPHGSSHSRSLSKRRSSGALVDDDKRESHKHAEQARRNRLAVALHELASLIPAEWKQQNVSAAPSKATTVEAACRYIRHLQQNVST

Sequence | relative binding free energy
GGGTTCACGTGATGTT | 0.36 kcal/mol
ACGTGCACGTGTCGGG | -0.13 kcal/mol
TGTAACACGTGTTGGA | 0.1 kcal/mol
AGGCGCACGTGATTAT | 0.19 kcal/mol
CGTTACACGTGTACGG | 0.11 kcal/mol
GGTATCACGTGTCGTG | 0.21 kcal/mol
GATGGCACGTGGGCAT | -0.27 kcal/mol
CTTGGCACGTGCGTTT | -0.13 kcal/mol
ATAGACACGTGGATTG | 0.05 kcal/mol
AGTACCACGTGGTTTT | -0.09 kcal/mol
GGACGCACGTGGTAGG | -0.14 kcal/mol
TAATTCACGTGGGGTA | 0.02 kcal/mol
TTTTGCACGTGAATGT | 0.22 kcal/mol
CGGTACACGTGTGGCG | 0.15 kcal/mol
GATATCACGTGTGGAT | 0.16 kcal/mol
AATAACACGTGGGTTT | -0.19 kcal/mol
TGTGACACGTGGTACT | -0.13 kcal/mol
CGGAGCACGTGAGGTG | 0.17 kcal/mol
ATTGTCACGTGGCGGA | -0.14 kcal/mol
TTCAGCACGTGGAGTT | 0.02 kcal/mol
TGCTTCACGTGTGGTT | 0.35 kcal/mol

Sequence | relative binding free energy
GTGTGCACGTGGAAAA | 0.08 kcal/mol
CTGGACACGTGGTTGC | 0.01 kcal/mol
TCATGCACGTGGGGGG | -0.08 kcal/mol
GGTAGCACGTGTCAGT | -0.08 kcal/mol
ATAGGCACGTGTTGGG | -0.07 kcal/mol
GGGGTCACGTGAAGAT | 0.4 kcal/mol
GCTTACACGTGTTGTT | 0.22 kcal/mol
TAAGGCACGTGTTTGG | -0.08 kcal/mol
TTAGCCACGTGTTATG | -0.06 kcal/mol
GAAAACACGTGGGGGG | -0.03 kcal/mol
TAGATCACGTGGGAGA | 0.13 kcal/mol
TATGCCACGTGCATGG | -0.13 kcal/mol
GAAAACACGTGTGGGA | 0.09 kcal/mol
ATTGTCACGTGGCTTA | -0.03 kcal/mol
TTTGTCACGTGGACGA | 0.21 kcal/mol
TCTGGCACGTGATAGG | 0.07 kcal/mol
TGCTTCACGTGGTGCG | 0.3 kcal/mol
ATTTACACGTGGGTAT | 0 kcal/mol
ATTAACACGTGTTATA | 0.04 kcal/mol
TGTATCACGTGTCTAG | 0.08 kcal/mol
TAATTCACGTGAGGTC | 0.47 kcal/mol

Sequence | relative binding free energy
ATGGGCACGTGTAATA | 0.02 kcal/mol
TTTGCCACGTGGGCGA | -0.15 kcal/mol
GTGCTCACGTGGTACG | 0.27 kcal/mol
GCGTGCACGTGGGGGC | -0.11 kcal/mol
ATAAACACGTGGTGTC | -0.05 kcal/mol
TTTTGCACGTGTTCGT | 0.07 kcal/mol
TTGGCCACGTGGAAGT | 0.13 kcal/mol
ATTGGCACGTGTGGTG | -0.03 kcal/mol
AGGGGCACGTGTTGAT | -0.09 kcal/mol
AAGCGCACGTGGGGGT | -0.26 kcal/mol
AGCTGCACGTGAGTTA | 0.2 kcal/mol
GTTGGCACGTGTATAA | 0 kcal/mol
TTGACCACGTGGATTG | 0.03 kcal/mol
AGGTTCACGTGCGTGA | 0.29 kcal/mol
ATGGACACGTGTGCAG | 0.07 kcal/mol
TAATACACGTGATGGG | 0.34 kcal/mol
TCTAGCACGTGATAGG | 0.07 kcal/mol
ATATGCACGTGTCGAT | 0.08 kcal/mol
CATGACACGTGGGGAG | -0.14 kcal/mol
CGTGGCACGTGAGGCG | 0.18 kcal/mol
TTTGACACGTGGTTAA | -0.06 kcal/mol
